From the supplement of paper PMC11417369
± gives the standard deviation of the averaged measurements. The list shows a part of the results.

Each sequence was assayed on PfAP2-G AP2 domain (GST-tagged) (assay: gcPBM binding intensity (ln(normalized median fluorescence intensity)); higher = stronger DNA binding).
How it was run: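 Binding intensity values are the highest Masliner-normalised natural-log median intensity among replicate spots of either probe orientation. The binding step lasted 1 h in 1× PBS with 1% milk, 0.2 mg/ml BSA, 0.5% salmon testes DNA and 0.03% Triton X-100, using GST-tagged P. falciparum DNA-binding domains expressed in E. coli on an Agilent 4 × 180k array of primer-extended double-stranded 36-bp intergenic genomic probes plus negative controls. Alexa488 anti-GST antibody and a 488 nm scan detected bound protein.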

“AAATTAAATAAATTTACACACTAAAAATTACAGATA [CACACA_site4722]” was tested. Which “gcPBM binding intensity (ln)” value did it give?
Its value is 9.88 ± 0.028.

“CTAAGAAAAAATAAAGCACACAAATATTTTAAAAAC [CACACA_site9094]” was tested. Which “gcPBM binding intensity (ln)” value did it give?
The value was 10.01 ± 0.014.

For “TAAAGTAAAACAAGGTAAGGTTTTTCTTTTTCTTTT [CACACA_negctrl_site1271]”, which “gcPBM binding intensity (ln)” value is on record?
Its value is 9.48 ± 0.18.

With “AAAAAAAAATGTCATGGTACACAATTTTTTCTTTTT [XGTACX_site4505]” as the sequence, how does the “gcPBM binding intensity (ln)” value read?
The value was 11 ± 0.56.

For “AAACATAAGGGACACACACACATATATATATATATA [CACACA_site5920]”, which “gcPBM binding intensity (ln)” value is on record?
Its value is 10.8 ± 0.61.

Which “gcPBM binding intensity (ln)” value does the source give for “CAAAAAAACAAACACACACACACACCGATATATATA [CACACA_site9218]” here?
The value was 9.94 ± 0.16.

For “TGAAGTGCAAAATACTGTACGTAATGTGCTTGTTAC [XGTACX_site4512]”, which “gcPBM binding intensity (ln)” value is on record?
The value was 11.5 ± 0.87.

Which “gcPBM binding intensity (ln)” value does the source give for AATAAATTATGAACGGTGCAGGAAAAATTGTAACAT here?
The value was 10.18 ± 0.028.

With “TAGATTATTTTATTTAGTACATAAAAAAGTAAGACC [XGTACX_site7889]” as the sequence, how does the “gcPBM binding intensity (ln)” value read?
The value was 11.1 ± 0.77.

How did the “gcPBM binding intensity (ln)” value turn out when “TTAAATAAATAAAAATGTACATGCATATATAAATAT [XGTACX_site8908]” was run?
Its value is 10.9 ± 0.38.

“AATTTTTTATATGTCACACATTTGTTATTATTATTA [CACACA_site4197]” was tested. Which “gcPBM binding intensity (ln)” value did it give?
The value was 10.04 ± 0.064.

Which “gcPBM binding intensity (ln)” value does the source give for “CAATCTTTTACGAATACACACACATAAAGAAAAAAA [CACACA_site8367]” here?
Its value is 10.2 ± 0.16.

How did the “gcPBM binding intensity (ln)” value turn out when “AAAAAGAATAAATAAATATAAATAAATAAATATATA [GTGCAC_negctrl_site336]” was run?
The value was 9.32 ± 0.2.

For “ACATATAGAAGTATCTATAAACAGTGATAGCATTTT [CACACA_negctrl_site1122]”, which “gcPBM binding intensity (ln)” value is on record?
The value was 10.1 ± 0.15.

Which “gcPBM binding intensity (ln)” value does the source give for “GCAAGGAAATAATTGATAATATATATATATATATAT [GTGCAC_negctrl_site400]” here?
The value was 9.84 ± 0.4.

For “ATACATAAATATTGATGTACTCATTTAATATATTAT [XGTACX_site3992]”, which “gcPBM binding intensity (ln)” value is on record?
The value was 11.3 ± 1.

Which “gcPBM binding intensity (ln)” value does the source give for “AATATATATATATATATATATTTTTGTTAGAATATG [XGTACX_negctrl_site58]” here?
Its value is 9.52 ± 0.12.

For “TATAATAAATATTAACGTACTCATATATATATATAT [XGTACX_site3871]”, which “gcPBM binding intensity (ln)” value is on record?
The value was 11.1 ± 0.69.

For “GAGTAAATAAATAAATGTACATATATATATATTATC [XGTACX_site8466]”, which “gcPBM binding intensity (ln)” value is on record?
The value was 11 ± 0.54.

How did the “gcPBM binding intensity (ln)” value turn out when “ATTATCTCCGCCATGTGGACACATATAAGACATTTT [XGTACX_site2889]” was run?
Its value is 11.1 ± 0.59.

“ATTGTATATAAATGAGTGCATACTATGTTGTTCTTA [GTGCAC_site9678]” was tested. Which “gcPBM binding intensity (ln)” value did it give?
The value was 10.3 ± 0.22.

Which “gcPBM binding intensity (ln)” value does the source give for “AAAAAAAAAAAAAACACACACACAAAAAAAAATATA [CACACA_site1104]” here?
The value was 10 ± 0.36.

How did the “gcPBM binding intensity (ln)” value turn out when “CTAAAATACGGACACACACACACATATATATATATA [CACACA_site6138]” was run?
Its value is 11.6 ± 0.93.

With “TATGTAAATCTCTTAAGAATTCGCTATATCTCTTTT [CACACA_negctrl_site1180]” as the sequence, how does the “gcPBM binding intensity (ln)” value read?
Its value is 9.46 ± 0.28.

“ATATAAGCGTATACATGTACATATATATCTTTGTAA [XGTACX_site2742]” was tested. Which “gcPBM binding intensity (ln)” value did it give?
The value was 11.3 ± 0.68.

For “AGGCTACGAATAGAATGTACCCGAAATAAGGAATAT [XGTACX_site6012]”, which “gcPBM binding intensity (ln)” value is on record?
The value was 11.4 ± 0.98.

Which “gcPBM binding intensity (ln)” value does the source give for “TTTTTTTTTTCAAATGCATGCAAAAAAAAAAAAATA [TGCATGCA_site945]” here?
Its value is 10 ± 0.5.

For “TATATGTATGTTTGTTTGTTTGTATTTTTTAAGGTA [XGTACX_negctrl_site619]”, which “gcPBM binding intensity (ln)” value is on record?
The value was 10.03 ± 0.064.

How did the “gcPBM binding intensity (ln)” value turn out when “TTTTCTTTTTCCAAAAGTACGTAATTTAAACATTTT [XGTACX_site2066]” was run?
The value was 11.2 ± 0.59.

For “AAAATATGTAGACACATACACACATATATATATATA [CACACA_site1221]”, which “gcPBM binding intensity (ln)” value is on record?
The value was 10.6 ± 0.86.

How did the “gcPBM binding intensity (ln)” value turn out when “AAATTAGAAATACCTACACACTTATCAAAATAAATT [CACACA_site7132]” was run?
Its value is 9.98 ± 0.13.

How did the “gcPBM binding intensity (ln)” value turn out when “ATAATTATGAAGCATACATGCATGTCCTGGCTTAAA [TGCATGCA_site491]” was run?
Its value is 10.2 ± 0.26.

Which “gcPBM binding intensity (ln)” value does the source give for “AAAAAATAAATAAATACACACAAATCTATATTTATA [CACACA_site7243]” here?
Its value is 9.79 ± 0.028.

For “TTATAATATGGATACACACACATATATAAATATATA [CACACA_site5314]”, which “gcPBM binding intensity (ln)” value is on record?
Its value is 10.2 ± 0.3.

“ATCTAAATTTTTCCATGTACATATACTTTTATGCAT [XGTACX_site2683]” was tested. Which “gcPBM binding intensity (ln)” value did it give?
The value was 11.2 ± 0.71.

Which “gcPBM binding intensity (ln)” value does the source give for “ATAAAAAAAAATAAATGTACAAATTAACAAAATAAT [XGTACX_site5048]” here?
Its value is 10.8 ± 0.42.

“ATTATTCATTTATGTAGTACATTTTAATACATTTAA [XGTACX_site3599]” was tested. Which “gcPBM binding intensity (ln)” value did it give?
Its value is 11.5 ± 0.64.

“AAGAAAAATTTAAACTGTACTTGTTTTCCAATGAAC [XGTACX_site4443]” was tested. Which “gcPBM binding intensity (ln)” value did it give?
The value was 11.4 ± 1.

For “AAAAAAAAAAAAGTTACACACAAATAAAATATTTGG [CACACA_site694]”, which “gcPBM binding intensity (ln)” value is on record?
The value was 9.87 ± 0.18.

Which “gcPBM binding intensity (ln)” value does the source give for “AATCACCAAATATGTACACACCTTAACATGTTTATA [CACACA_site5180]” here?
Its value is 11.4 ± 0.82.

“ATCTAAACAAATAATACACACAATAAAATAGGAAGA [CACACA_site4072]” was tested. Which “gcPBM binding intensity (ln)” value did it give?
The value was 9.94 ± 0.042.

For “TGTGAATAAATAAGCACACATAAACCCATATATAAA [CACACA_site4103]”, which “gcPBM binding intensity (ln)” value is on record?
Its value is 10.21 ± 0.021.

Which “gcPBM binding intensity (ln)” value does the source give for “TATTTTTTAAAAATGGGTACACATAAATAAATAAAT [XGTACX_site7643]” here?
Its value is 11.6 ± 0.95.

How did the “gcPBM binding intensity (ln)” value turn out when “TAATATTTACATATTACACACACGTATTATTAAATA [CACACA_site6340]” was run?
Its value is 10.12 ± 0.071.
